Results published in the supplement of paper PMC8728848.
Some of the results follow.

What was measured:
Test in all cases: glycan array binding signal (z-score within array); higher = stronger binding
Conditions in all cases: glycan notation: IUPAC condensed, linker removed
[1] = target: Neu5Ac(a2-3)Gal(b1-4)GlcNAc(b1-2)[Neu5Ac(a2-3)Gal(b1-4)GlcNAc(b1-4)]Man(a1-3)[GlcNAc(b1-4)][Neu5Ac(a2-3)Gal(b1-4)GlcNAc(b1-2)[Neu5Ac(a2-3)Gal(b1-4)GlcNAc(b1-6)]Man(a1-6)]Man(b1-4)GlcNAc(b1-4)GlcNAc
Procedure, shortened: (§1)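 The binding signal is a Z-score computed within each array. Data were drawn from 3228 arrays in the Consortium for Functional Glycomics database, restricted to those with a known protein sequence. Scores were averaged over arrays of the same protein sequence at different concentrations or buffers, and over linkers, and negative values can be taken as non-binding.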

[2] = target: Neu5Ac(a2-3)Gal(b1-4)GlcNAc(b1-2)[Neu5Ac(a2-3)Gal(b1-4)GlcNAc(b1-4)]Man(a1-3)[GlcNAc(b1-4)][Neu5Ac(a2-3)Gal(b1-4)GlcNAc(b1-4)Man(a1-6)]Man(b1-4)GlcNAc(b1-4)GlcNAc
Procedure, shortened: as §1

[3] = target: Neu5Ac(a2-3)Gal(b1-4)GlcNAc(b1-2)[Neu5Ac(a2-3)Gal(b1-4)GlcNAc(b1-6)]Man(a1-6)[Neu5Ac(a2-3)Gal(b1-4)GlcNAc(b1-2)Man(a1-3)][GlcNAc(b1-4)]Man(b1-4)GlcNAc(b1-4)GlcNAc
Procedure, shortened: as §1

[4] = target: Neu5Ac(a2-3)Gal(b1-4)GlcNAc(b1-3)Gal
Procedure, shortened: as §1

[5] = target: Neu5Ac(a2-3)Gal(b1-4)GlcNAc(b1-3)Gal(b1-3)GlcNAc
Procedure, shortened: as §1

[6] = target: Neu5Ac(a2-3)Gal(b1-4)GlcNAc(b1-3)Gal(b1-4)GlcNAc
Procedure, shortened: as §1

[7] = target: Neu5Ac(a2-3)Gal(b1-4)GlcNAc(b1-3)Gal(b1-4)GlcNAc(b1-2)Man(a1-3)[Neu5Ac(a2-3)Gal(b1-4)GlcNAc(b1-3)Gal(b1-4)GlcNAc(b1-2)Man(a1-6)]Man(b1-4)GlcNAc(b1-4)GlcNAc
Procedure, shortened: as §1

[8] = target: Neu5Ac(a2-3)Gal(b1-4)GlcNAc(b1-3)Gal(b1-4)GlcNAc(b1-3)Gal(b1-4)GlcNAc
Procedure, shortened: as §1

[9] = target: Neu5Ac(a2-3)Gal(b1-4)GlcNAc(b1-3)Gal(b1-4)GlcNAc(b1-3)Gal(b1-4)GlcNAc(b1-2)Man(a1-3)[Neu5Ac(a2-3)Gal(b1-4)GlcNAc(b1-3)Gal(b1-4)GlcNAc(b1-3)Gal(b1-4)GlcNAc(b1-2)Man(a1-6)]GalNAc
Procedure, shortened: as §1

[10] = target: Neu5Ac(a2-3)Gal(b1-4)GlcNAc(b1-3)Gal(b1-4)GlcNAc(b1-3)GalNAc
Procedure, shortened: as §1

[11] = target: Neu5Ac(a2-3)Gal(b1-4)GlcNAc(b1-3)Gal(b1-4)GlcNAc(b1-3)[Neu5Ac(a2-3)Gal(b1-4)GlcNAc(b1-3)Gal(b1-4)GlcNAc(b1-6)]GalNAc
Procedure, shortened: as §1

[12] = target: Neu5Ac(a2-3)Gal(b1-4)GlcNAc(b1-3)Gal(b1-4)GlcNAc(b1-6)[Gal(b1-3)]GalNAc
Procedure, shortened: as §1

[13] = target: Neu5Ac(a2-3)Gal(b1-4)GlcNAc(b1-3)Gal(b1-4)[Fuc(a1-3)]GlcNAc
Procedure, shortened: as §1

[14] = target: Neu5Ac(a2-3)Gal(b1-4)GlcNAc(b1-3)GalNAc
Procedure, shortened: as §1

[15] = target: Neu5Ac(a2-3)Gal(b1-4)GlcNAc(b1-3)[Neu5Ac(a2-3)Gal(b1-4)GlcNAc(b1-6)]GalNAc
Procedure, shortened: as §1

[16] = target: Neu5Ac(a2-3)Gal(b1-4)GlcNAc(b1-6)GalNAc
Procedure, shortened: as §1

[17] = target: Neu5Ac(a2-3)Gal(b1-4)GlcNAc(b1-6)[Gal(b1-3)]GalNAc
Procedure, shortened: as §1

[18] = target: Neu5Ac(a2-3)Gal(b1-4)GlcNAc(b1-6)[Neu5Ac(a2-3)Gal(b1-3)]GalNAc
Procedure, shortened: as §1

[19] = target: Neu5Ac(a2-3)Gal(b1-4)GlcNAc6S
Procedure, shortened: as §1

[20] = target: Neu5Ac(a2-3)Gal(b1-4)[Fuc(a1-3)]GlcNAc
Procedure, shortened: as §1

[21] = target: Neu5Ac(a2-3)Gal(b1-4)[Fuc(a1-3)]GlcNAc(b1-2)Man
Procedure, shortened: as §1

[22] = target: Neu5Ac(a2-3)Gal(b1-4)[Fuc(a1-3)]GlcNAc(b1-3)Gal
Procedure, shortened: as §1

[23] = target: Neu5Ac(a2-3)Gal(b1-4)[Fuc(a1-3)]GlcNAc(b1-3)Gal(b1-4)GlcNAc
Procedure, shortened: as §1

[24] = target: Neu5Ac(a2-3)Gal(b1-4)[Fuc(a1-3)]GlcNAc(b1-3)Gal(b1-4)[Fuc(a1-3)]GlcNAc(b1-3)Gal(b1-4)[Fuc(a1-3)]GlcNAc
Procedure, shortened: as §1

[25] = target: Neu5Ac(a2-3)Gal(b1-4)[Fuc(a1-3)]GlcNAc(b1-3)GalNAc
Procedure, shortened: as §1

[26] = target: Neu5Ac(a2-3)Gal(b1-4)[Fuc(a1-3)]GlcNAc(b1-6)[Gal(b1-3)]GalNAc
Procedure, shortened: as §1

[27] = target: Neu5Ac(a2-3)Gal(b1-4)[Fuc(a1-3)]GlcNAc(b1-6)[Neu5Ac(a2-3)Gal(b1-3)]GalNAc
Procedure, shortened: as §1

[28] = target: Neu5Ac(a2-3)Gal(b1-4)[Fuc(a1-3)]GlcNAc6S
Procedure, shortened: as §1

[29] = target: Neu5Ac(a2-3)Gal6S(b1-4)GlcNAc
Procedure, shortened: as §1

[30] = target: Neu5Ac(a2-3)Gal6S(b1-4)[Fuc(a1-3)]GlcNAc
Procedure, shortened: as §1

Neu5Ac(a2-3)GalNAc = target: Neu5Ac(a2-3)GalNAc
Procedure, shortened: as §1

[31] = target: Neu5Ac(a2-3)GalNAc(b1-4)GlcNAc
Procedure, shortened: as §1

[32] = target: Neu5Ac(a2-3)[GalNAc(b1-4)]Gal(b1-4)Glc
Procedure, shortened: as §1

[33] = target: Neu5Ac(a2-3)[GalNAc(b1-4)]Gal(b1-4)GlcNAc
Procedure, shortened: as §1

[34] = target: Neu5Ac(a2-3)[GalNAc(b1-4)]Gal(b1-4)GlcNAc(b1-3)GalNAc
Procedure, shortened: as §1

[35] = target: Neu5Ac(a2-3)[Neu5Ac(a2-6)]GalNAc
Procedure, shortened: as §1

Neu5Ac(a2-6)Gal = target: Neu5Ac(a2-6)Gal
Procedure, shortened: as §1

B1: Epa13 (Candida glabrata) (protein)
chain: MGSSHHHHHHSSGLVPRGSHMASDSSENGYAHGCSPSIRAKLKPGLSMEIYSYALRPTDDHCWDSAYLDPMFPRTGYLTHKLLGKAEGIIGPLNFLAKNPACIPAVSTLPLAFHFPKPFTITNFTMLLYGYLSPKKTGKYTFKLLADDLLLMNFGADNAFDCCSHDATKDNIGEYVAYSVWPGVNKNVTVYLESGIYYPLRLFFNNRDAIAQLDFAYYFNDSPIRQTDFSGMFFSIPDSVKCPANI
glycan array binding signal (z-score) [1]: -0.406 | glycan array binding signal (z-score) [2]: -0.123 | glycan array binding signal (z-score) [3]: -0.431 | glycan array binding signal (z-score) [4]: -0.31 | glycan array binding signal (z-score) [5]: -0.222 | glycan array binding signal (z-score) [6]: -0.095 | glycan array binding signal (z-score) [7]: 0.632 | glycan array binding signal (z-score) [8]: -0.21 | glycan array binding signal (z-score) [9]: 0.821 | glycan array binding signal (z-score) [10]: 0.208 | glycan array binding signal (z-score) [11]: -0.167 | glycan array binding signal (z-score) [12]: 0.018 | glycan array binding signal (z-score) [13]: -0.169 | glycan array binding signal (z-score) [14]: -0.077 | glycan array binding signal (z-score) [15]: -0.089 | glycan array binding signal (z-score) [16]: -0.147 | glycan array binding signal (z-score) [17]: 0.015 | glycan array binding signal (z-score) [18]: -0.394 | glycan array binding signal (z-score) [19]: -0.255 | glycan array binding signal (z-score) [20]: -0.478 | glycan array binding signal (z-score) [21]: -0.233 | glycan array binding signal (z-score) [22]: -0.435 | glycan array binding signal (z-score) [23]: 0.107 | glycan array binding signal (z-score) [24]: -0.295 | glycan array binding signal (z-score) [25]: 0.426 | glycan array binding signal (z-score) [26]: 1.06 | glycan array binding signal (z-score) [27]: 0.889 | glycan array binding signal (z-score) [28]: -0.352 | glycan array binding signal (z-score) [29]: 0.078 | glycan array binding signal (z-score) [30]: -0.54 | glycan array binding signal (z-score) (Neu5Ac(a2-3)GalNAc): 0.065 | glycan array binding signal (z-score) [31]: -0.046 | glycan array binding signal (z-score) [32]: -0.377 | glycan array binding signal (z-score) [33]: -0.468 | glycan array binding signal (z-score) [34]: 0.03 | glycan array binding signal (z-score) [35]: -0.298 | glycan array binding signal (z-score) (Neu5Ac(a2-6)Gal): -0.413
